Measurements from PubChem BioAssay AID651820 (National Center for Advancing Translational Sciences (NCATS), 2012).
Among all 340,000 compounds or so, about 12,000 (3.5%) were called active. Inconclusive results, whose numbers are uncertain, are shown with a selection of clear calls. Calls follow the shape of the dose curve; as a rule, active = well fitted inhibition curve with a large enough effect; inconclusive = small, poorly fitted or top-dose-only effect, or another doubt; inactive = no such curve, though single readings can be large or run the other way. Potencies of inconclusive entries are left out as doubtful fits.

Test: qHTS Assay for Inhibitors of Hepatitis C Virus (HCV)
Conditions: Huh7.5.1 HCVcc-Cre (HCVcc is cell-culture hepatitis C virus) infection, luciferase reporter, 44 h; activity change, negative = inhibition: at 41.8 µM (top of the series) unless noted
Procedure, shortened: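 After 44 h co-culture of compound, cells and HCVcc-Cre (~0.5 moi), substrate is added for 15 min at room temperature and luciferase measured over 15 sec. Cells were seeded at 1,000/well and pre-cultured 4 h.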
% is scaled to controls: 0 for no effect and ±100 for the full control effect; potency is read from the fitted curve at half-maximal effect; tags tell the direction and shape of the fitted curve.

Compound | Potency | activity change, negative = inhibition
O=C(Cc1cccs1)Nc1ccccc1-c1nc2ccccc2[nH]1 | inconclusive [inhibitor, single point] | 
CCN1CCN(C(=O)c2ccc(COc3ccc(Cl)cc3)o2)CC1 | inconclusive [inhibitor, single point] | 
CC1Cc2ccccc2N1c1nc(C2CC2)nc2c1nnn2Cc1ccccc1 (stereo not given) |  | inactive: 3.97%
CCOc1ccc(C(=O)Nc2ccc(NC(=O)c3ccccc3)c(C)c2)cc1[N+](=O)[O-] | inconclusive [inhibitor, single point] | 
COc1ccc(CCCc2nc3ccccc3[nH]2)cc1 |  | inactive: 7.92%
O=C(CCCn1c(=S)[nH]c2ccccc2c1=O)N1CCN(c2cccc(Cl)c2)CC1 |  | inactive: -24.8%
CCc1cccc(NC(=S)Nc2cccc3ccccc23)c1 | inconclusive [inhibitor, single point] | 
CN(C)c1nc(Cl)nc(N(C#N)CCOc2ccccc2)n1 | inconclusive [inhibitor, partial curve] | 
CCn1c2ccccc2c2cc(/C=N/NC(=O)c3cc(O)cc(O)c3)ccc21 | inconclusive [inhibitor, partial curve] | 
CCn1cc(-c2ccccc2)c(C(=O)O)c1-c1ccc(OC)cc1 | inconclusive [inhibitor, single point] | 
c1ccc(CN(CC2=NCCN2)c2ccccc2)cc1 | inactive | 
Cc1ccc(N2C(=O)c3cccc4c(Oc5ccccc5[N+](=O)[O-])ccc(c34)C2=O)c(C)c1 | inconclusive [inhibitor, partial curve] | 
COC(=O)c1c(-c2ccc(Br)cc2)csc1NC(=O)Cc1ccc(OC)c(OC)c1 | inconclusive [inhibitor, partial curve, poor fit] | 
CCN(c1nc(N)c(C(=O)N=C(N)N)nc1Cl)C(C)C | inconclusive [inhibitor, partial curve, poor fit] | 
O=C(NCc1cccnc1)c1ccc(COc2ccccc2Br)o1 | inconclusive [inhibitor, single point] | 
Cc1cc(N)n(-c2nc(-c3cccnc3)nc3ccccc23)n1 | inconclusive [inhibitor, single point] | 
O=C1c2cccc(NCCNCCO)c2C(=O)c2cccc(NCCNCCO)c21 | inconclusive [inhibitor, single point] | 
Cc1ccc(NS(=O)(=O)c2cc(NC(=O)c3cc4c(s3)CCCC4)ccc2C)c(C)c1 | inconclusive [inhibitor, partial curve] | 
NC(=O)CC(NC(=O)c1ccccc1)c1ccc(N2CCCCCC2)c([N+](=O)[O-])c1 (stereo not given) | inconclusive [inhibitor, single point] | 
O=C(Nc1cccc2ccccc12)/C(=C/c1ccc([N+](=O)[O-])cc1)NC(=O)c1ccccc1 | inconclusive [inhibitor, single point] | 
N#CCN1CCN(CCC(=O)Nc2ccc(OCc3ccccc3)cc2)CC1 | inconclusive [inhibitor, single point] | 
CCn1c(=O)c2cc(C(=O)NCC(OC)OC)sc2c2ccccc21 | inconclusive [inhibitor, partial curve] | 
CCC(=O)Nc1nnc(SCC(=O)NC2CCCC2)s1 | inconclusive [inhibitor, partial curve, poor fit] | 
CNC(=O)C(=O)Nc1nc(C23CC4CC(CC(C4)C2)C3)cs1 |  | inactive: 4.36%

Compound | Potency | activity change, negative = inhibition
NC(=O)c1c(NC(=O)CN2CCOCC2)sc2c1CCC2 |  | inactive: -2.14%
CCC(C)Nc1nc2c(c(=O)[nH]c(=O)n2C)n1CCC(C)C (stereo not given) | inconclusive [inhibitor, single point] | 
O=C(Cc1ccc(Cl)c(Cl)c1)Nc1cccc(S(=O)(=O)N2CCOCC2)c1 | inconclusive [inhibitor, full curve] | 
CC(=O)c1cc2c(cc1NC(=O)C1CC1)OCO2 | active: 11.2 µM | 
CN1CCN(C=NC2=NN(c3cccc(C(F)(F)F)c3)CC2)CC1 | inconclusive [inhibitor, single point] | 
Cn1c(=O)oc2cc(S(=O)(=O)N3CCN(c4ccccc4F)CC3)ccc21 | inconclusive [inhibitor, single point] | 
Cc1ccc(NC(=O)c2cc(C)nc3ccccc23)c(Br)c1 |  | inactive: -25.6%
COc1ccc(OC)c(C2C3=C(CCCC3=O)Nc3nnnn32)c1 (stereo not given) |  | inactive: 1.62%
Nc1nc(-c2ccccn2)nc(N)c1Cc1c(F)cccc1Cl | active: 5.01 µM | 
CCOc1ccccc1NC(=O)c1c(Br)cnn1C | inconclusive [inhibitor, partial curve] | 
CCc1nc(SCC(=O)N2CCN(c3ccccc3)CC2)c2oc3ccccc3c2n1 | active: 10 µM | 
Cc1[nH]c2ccc3ncccc3c2c1C | active: 11.2 µM | 
COc1ccccc1C1=NN(C(=S)Nc2ccccc2)C(c2ccco2)C1 (stereo not given) | inconclusive [inhibitor, single point] | 
CC(=O)c1nn(-c2cccc(Br)c2)cc1C(=O)c1ccccc1 | inconclusive [inhibitor, partial curve] | 
Cc1c(C(=O)NC2CCCc3ccccc32)oc2ccccc12 (stereo not given) | inconclusive [inhibitor, single point] | 
O=C(Cc1cccs1)N/N=C/c1ccc(OCc2ccccc2)cc1 | inconclusive [inhibitor, full curve] | 
Cc1c(C)n(Cc2ccccc2)c2ccc(C(=O)OCCN(C)C)cc12 | inconclusive [inhibitor, single point] | 
CC(C)OC(=O)Cn1c(-c2ccccc2)c(-c2ccccc2)nnc1=O |  | inactive: 0.158%
COCCCNCCCCOc1cccc(Br)c1 | inconclusive [inhibitor, single point] | 
CCn1cc(CN2CCC(C(=O)Nc3ccc(Oc4ccccc4)nc3)CC2)cn1 | inconclusive [inhibitor, single point] | 
COc1ccc(CCNC(=O)c2cc3c(=O)n4ccccc4nc3n(C3CCCCC3)c2=N)cc1OC |  | inactive: -13.6%
O=C(NCCCCc1ccccc1)Nc1ccc(F)cc1 | inconclusive [inhibitor, partial curve] | 
CCC1CCCCN1c1nc(-c2cccc(OC)c2O)nc2ccccc12 (stereo not given) | inconclusive [inhibitor, full curve] | 
O=C(Nc1ccc(Cl)c(Cl)c1)Nc1ccc(N2CCCC2)c(S(=O)(=O)Nc2ccccc2Cl)c1 | inconclusive [inhibitor, full curve] | 

Compound | Potency | activity change, negative = inhibition
COc1ccc(CN(CC(=O)NCc2ccco2)C(=O)CCC(=O)Nc2ccccn2)cc1 |  | inactive: -3.74%
CN1CCN(Cc2cc(=O)oc3cc4c(cc23)CCC4)CC1 | inconclusive [inhibitor, single point] | 
CCN(c1ccccc1)S(=O)(=O)c1ccc(Cl)c(C(=O)NC2CCN(Cc3ccccc3)CC2)c1 | inconclusive [inhibitor, partial curve] | 
COc1ccc(N/C=C/C(=O)c2ccccc2)cc1 |  | inactive: -7.29%
CC(C)CCN1CCN(CC(c2ccccc2)c2ccccc2)CC1CCO (stereo not given) | inconclusive [inhibitor, partial curve] | 
CCCCCCCCNC(=O)/C(C#N)=C/c1ccc(SC)cc1 | inconclusive [inhibitor, partial curve] | 
CC(=O)Nc1c(F)cc(Br)cc1F | inconclusive [inhibitor, partial curve, poor fit] | 
Cc1ccc(S(=O)(=O)N2CCN(C(=O)COC(=O)COc3ccc(Cl)c(C)c3)CC2)c(C)c1 |  | inactive: 13.4%
CC(=O)N1N=C(c2ccc(NS(=O)(=O)c3ccccc3)cc2)CC1c1ccco1 (stereo not given) | inconclusive [inhibitor, partial curve] | 
CCOC(=O)N1CCC(NC(=O)c2ccc3c(c2)N(Cc2ccc(F)cc2)CCS3)CC1 | active: 17.8 µM | 
COc1ccc(CN2CCN(CCCCOc3ccc(Cl)cc3)CC2)c(OC)c1OC | inconclusive [inhibitor, full curve] | 
Cc1ccccc1C(=O)O/N=C(\N)c1ccccc1 | inconclusive [inhibitor, single point] | 
Cc1cccc(NC(=O)c2cc3ccccc3o2)c1 | inconclusive [inhibitor, single point] | 
CC1CCCN(C(=O)COC(=O)c2cc(Br)ccc2O)C1 (stereo not given) |  | inactive: -7.38%
CSc1nnc(C)c(=O)n1COC(=O)c1ccc(S(=O)(=O)N(C)C)cc1 |  | inactive: 7.77%
O=C(O)c1ccccc1C(=O)NCCc1ccc(Cl)cc1 |  | inactive: 9.99%
CC1CCN(c2ccc(NC(=O)C3CCCN3S(=O)(=O)c3ccc(F)cc3)cc2)CC1 (stereo not given) | inconclusive [inhibitor, single point] | 
COc1cc(C(=O)NC(=S)Nc2cccc(-c3cc4ccccc4oc3=O)c2)cc(OC)c1OC | inconclusive [inhibitor, partial curve] | 
O=C(/C=C/c1ccccc1)NC(=S)Nc1ccccc1C(=O)NC1CCCCC1 | inconclusive [inhibitor, single point] | 
CC(C)c1ccc(NC(=O)NCc2ccc3c(c2)OCO3)cc1 | inconclusive [inhibitor, partial curve] | 
Cc1ccc(S(=O)(=O)N2CCOCC2)cc1NC(=O)COC(=O)CNC(=O)c1ccc(Oc2ccccc2)cc1 |  | inactive: 7.03%
CCOC(=O)C1(Cc2cccc(OC)c2)CCN(Cc2cccc(OCC)c2O)CC1 | inconclusive [inhibitor, single point] | 
